Measured values published in the supplement of paper PMC9151546.
Single values are uncertain, as repeats are few or missing.

Tests used:
[1] = test system: CHO-K1; assay: micronucleus frequency (% of nucleated events); higher = more micronuclei (genotoxic)
[2] = test system: CHO-K1; assay: hypodiploid nuclei frequency (% of nucleated events); higher = more hypodiploid events (aneugenic)
[3] = test system: CHO-K1; assay: relative survival (nuclei to bead ratio vs DMSO control) (% of vehicle control); higher = more surviving cells
Description: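 Flow-cytometric in vitro micronucleus assay (Litron MicroFlow) in CHO-K1 cells in 96-well plates, 19 concentrations (4.5-200 µM, n=1 per concentration). Without S9, cells were exposed for 24 h and sampled at 48 h. With Aroclor 1254-induced rat liver S9, cells were exposed for 3-4 h and sampled at 27-28 h. Read-outs are %MN and %hypodiploid nuclei relative to nucleated events, and relative survival as the nuclei-to-bead ratio versus the 1% DMSO vehicle control (x100).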
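Wherever hypodiploid nuclei frequency (% of nucleated events) is given: hypodiploid nuclei gated on a flow cytometer with 488 nm excitation after SYTOX Green staining, cultures at 37 °C, positive controls vinblastine without S9 and cyclophosphamide with S9.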
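Wherever micronucleus frequency (% of nucleated events) is given: cells lysed with nuclei stained by SYTOX Green, then micronucleus-gated events counted against nucleated events by flow cytometry with 488 nm excitation.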
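Wherever relative survival (nuclei to bead ratio vs DMSO control) is given: Lysed-cell nuclei stained with SYTOX Green and counted against counting beads by flow cytometry at 488 nm excitation, with vinblastine (no S9) and cyclophosphamide (plus S9) as positive controls.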

O=S(=O)(O)c1ccc(N=Nc2c(O)ccc3cc(S(=O)(=O)O)ccc23)cc1 [FD&C Yellow 6]
Details	hypodiploid nuclei frequency, [2] [%]	micronucleus frequency, [1] [%]	relative survival, [3]
concentration: 4.5 (µM), S9 metabolic activation: with S9, exposure time: 3-4 hours	0.36	1.3	148
concentration: 4.5 (µM), S9 metabolic activation: without S9, exposure time: 24 hours	0.46	1.28	114
concentration: 5.63 (µM), S9 metabolic activation: with S9, exposure time: 3-4 hours	0.2	1.32	158
concentration: 5.63 (µM), S9 metabolic activation: without S9, exposure time: 24 hours	0.54	1.44	104
concentration: 7.04 (µM), S9 metabolic activation: with S9, exposure time: 3-4 hours	0.3	1.46	133
concentration: 7.04 (µM), S9 metabolic activation: without S9, exposure time: 24 hours	0.74	2.18	103
concentration: 8.8 (µM), S9 metabolic activation: with S9, exposure time: 3-4 hours	0.2	1.78	185
concentration: 8.8 (µM), S9 metabolic activation: without S9, exposure time: 24 hours	0.6	2.06	99
concentration: 11 (µM), S9 metabolic activation: with S9, exposure time: 3-4 hours	0.12	1.66	156
concentration: 11 (µM), S9 metabolic activation: without S9, exposure time: 24 hours	0.76	1.58	123
concentration: 13.7 (µM), S9 metabolic activation: with S9, exposure time: 3-4 hours	0.2	1.34	129
concentration: 13.7 (µM), S9 metabolic activation: without S9, exposure time: 24 hours	0.58	2.16	130
concentration: 17.2 (µM), S9 metabolic activation: with S9, exposure time: 3-4 hours	0.18	1.46	136
concentration: 17.2 (µM), S9 metabolic activation: without S9, exposure time: 24 hours	0.78	2.26	113
concentration: 21.5 (µM), S9 metabolic activation: with S9, exposure time: 3-4 hours	0.16	1.68	119
concentration: 21.5 (µM), S9 metabolic activation: without S9, exposure time: 24 hours	0.74	2.12	107
concentration: 26.8 (µM), S9 metabolic activation: with S9, exposure time: 3-4 hours	0.22	1.76	193
concentration: 26.8 (µM), S9 metabolic activation: without S9, exposure time: 24 hours	6.04	1.38	112
concentration: 33.6 (µM), S9 metabolic activation: with S9, exposure time: 3-4 hours	0.14	1.16	144
concentration: 33.6 (µM), S9 metabolic activation: without S9, exposure time: 24 hours	0.92	1.34	134
concentration: 41.9 (µM), S9 metabolic activation: with S9, exposure time: 3-4 hours	0.2	1.12	126
concentration: 41.9 (µM), S9 metabolic activation: without S9, exposure time: 24 hours	0.76	1.12	135
concentration: 52.4 (µM), S9 metabolic activation: with S9, exposure time: 3-4 hours	0.46	1.56	118
concentration: 52.4 (µM), S9 metabolic activation: without S9, exposure time: 24 hours	0.8	1.12	101
concentration: 65.5 (µM), S9 metabolic activation: with S9, exposure time: 3-4 hours	0.16	1.5	111
concentration: 65.5 (µM), S9 metabolic activation: without S9, exposure time: 24 hours	1.76	1.22	108
concentration: 81.9 (µM), S9 metabolic activation: with S9, exposure time: 3-4 hours	0.16	1.06	132
concentration: 81.9 (µM), S9 metabolic activation: without S9, exposure time: 24 hours	1.8	0.96	114
concentration: 102 (µM), S9 metabolic activation: with S9, exposure time: 3-4 hours	0.16	1.08	158
concentration: 102 (µM), S9 metabolic activation: without S9, exposure time: 24 hours	1.32	1.7	125
concentration: 128 (µM), S9 metabolic activation: with S9, exposure time: 3-4 hours	0.08	1.12	113
concentration: 128 (µM), S9 metabolic activation: without S9, exposure time: 24 hours	4.32	1.6	101
concentration: 160 (µM), S9 metabolic activation: with S9, exposure time: 3-4 hours	0.2	1.46	116
concentration: 160 (µM), S9 metabolic activation: without S9, exposure time: 24 hours	3.48	2.46	122
concentration: 200 (µM), S9 metabolic activation: with S9, exposure time: 3-4 hours	0.28	1.48	105
concentration: 200 (µM), S9 metabolic activation: without S9, exposure time: 24 hours	5.42	1.94	99
